{"source": "the supplement of paper PMC11417369", "note": "± gives the standard deviation of the averaged measurements. The list shows a part of the results."}
{"system": "PfAP2-LT AP2 domain (GST-tagged)", "test": "gcPBM binding intensity (ln(normalized median fluorescence intensity)); higher = stronger DNA binding", "procedure,_shortened": "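GST-fused DNA-binding domains of P. falciparum, expressed in E. coli, were applied at about 25 μg on average for 1 h to an Agilent 4 × 180k array of primer-extended double-stranded 36-bp intergenic genomic probes and negative controls. Binding intensity is the highest Masliner-normalised natural-log median intensity across replicate spots of either probe orientation, measured with Alexa488 anti-GST antibody and a 488 nm scan.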"}
{"sequence": "CTTGTCATTTGGCACACACACATGTATAGGTTATTA [CACACA_site5656]", "gcPBM binding intensity (ln)": "9.54 ± 0.29"}
{"sequence": "TGAATAAATCAAAGCACACATACACAGACATATATA [CACACA_site4316]", "gcPBM binding intensity (ln)": "9.36 ± 0.36"}
{"sequence": "AACAGATAATATAAAAAAAAAAAAAAAAATAATTAA [GTGCAC_negctrl_site69]", "gcPBM binding intensity (ln)": "8.55 ± 0.58"}
{"sequence": "TTTTAGTTATTGTATTATTATTAATATATAATATCT [CACACA_negctrl_site1528]", "gcPBM binding intensity (ln)": "8.59 ± 0.53"}
{"sequence": "CTAAAATGTAAAAACGCACACATAATATTATAAAAA [CACACA_site2788]", "gcPBM binding intensity (ln)": "9.26 ± 0.42"}
{"sequence": "AAAGCATGTTAATATGTATAAATACTGATCATTCAC [GTGCAC_negctrl_site576]", "gcPBM binding intensity (ln)": "8.8 ± 0.39"}
{"sequence": "TATATATATATATATGTACACACATCAATCATATTA [CACACA_site8594]", "gcPBM binding intensity (ln)": "9.54 ± 0.18"}
{"sequence": "GAATAAATAATTAACACACACAATCTTTTTTTTTTT [CACACA_site3140]", "gcPBM binding intensity (ln)": "9.12 ± 0.3"}
{"sequence": "TCACTTTTTATTAAATGTACATGCTTTCATTTTCAT [XGTACX_site8139]", "gcPBM binding intensity (ln)": "8.98 ± 0.52"}
{"sequence": "AAAAAAAAAATAAAATAAAATATATTATATATATTA [GTGCAC_negctrl_site431]", "gcPBM binding intensity (ln)": "8.25 ± 0.67"}
{"sequence": "CCACAGGATTGGTTCAAACACACATATTATATGACT [CACACA_site661]", "gcPBM binding intensity (ln)": "8.93 ± 0.39"}
{"sequence": "TATTTTTTTTTTTTTTGTACACATAATTGTAATCGT [XGTACX_site8415]", "gcPBM binding intensity (ln)": "8.82 ± 0.43"}
{"sequence": "CATATAAAAATGTGCACACACACACCGATATATATT [CACACA_site4940]", "gcPBM binding intensity (ln)": "9.95 ± 0.17"}
{"sequence": "TGTACGAGTCGTAGAGTGCAGTCTGGAGAAAAGTAC [GTGCAC_site9683]", "gcPBM binding intensity (ln)": "9.13 ± 0.4"}
{"sequence": "TATATATATATATATACACACTTGTGCAGAATATTA [CACACA_site5257]", "gcPBM binding intensity (ln)": "9.79 ± 0.057"}
{"sequence": "TATAAATGTGTATGCGCATGTAAAAATATAATTTAT [TGCATGCA_site750]", "gcPBM binding intensity (ln)": "9.01 ± 0.43"}
{"sequence": "GTAAATAATAAACACCGTACATGGTATAATTCAATG [XGTACX_site3655]", "gcPBM binding intensity (ln)": "9.11 ± 0.41"}
{"sequence": "AAATAAATAAATAGACGTACAAAAATATTATACATT [XGTACX_site6776]", "gcPBM binding intensity (ln)": "8.96 ± 0.52"}
{"sequence": "AATAATGAAAAAATGAATAAAATTACTATATAATTC [XGTACX_negctrl_site457]", "gcPBM binding intensity (ln)": "8.49 ± 0.64"}
{"sequence": "GATATGATGTGTTTGGTAGTTTTTGATGTTGGCATG [GTGCAC_negctrl_site506]", "gcPBM binding intensity (ln)": "9.03 ± 0.45"}
{"sequence": "ACAAAAAATTAATGAGAAATGGAATAATAAGTTATA [GTGCAC_negctrl_site321]", "gcPBM binding intensity (ln)": "8.61 ± 0.54"}
{"sequence": "GGATATTAATAAATATGTACATATGTAGATTTATTA [XGTACX_site554]", "gcPBM binding intensity (ln)": "8.93 ± 0.45"}
{"sequence": "TATAAATAGAGGAAGCGTACATATATATATATATAT [XGTACX_site4993]", "gcPBM binding intensity (ln)": "10 ± 0.38"}
{"sequence": "TGTATACCTTAATATACACACATACCTATATTTATA [CACACA_site6746]", "gcPBM binding intensity (ln)": "8.95 ± 0.42"}
{"sequence": "ATATATAAATATATATGTACATAAATATATATCTTT [XGTACX_site6910]", "gcPBM binding intensity (ln)": "8.85 ± 0.31"}
{"sequence": "AAGAAAAAAAAAAAAACACACATATATATATATATA [CACACA_site2027]", "gcPBM binding intensity (ln)": "10.1 ± 0.14"}
{"sequence": "AGGTGCTTAATATATACACACATACAGATATATATA [CACACA_site5552]", "gcPBM binding intensity (ln)": "9.12 ± 0.37"}
{"sequence": "TTTTTCTTATTTGGATTGCACTACATATATATATAT", "gcPBM binding intensity (ln)": "9.1 ± 0.59"}
{"sequence": "GAACTCATTACAAAGTGTACAAATTAAATAAATGGT [XGTACX_site3995]", "gcPBM binding intensity (ln)": "9.07 ± 0.52"}
{"sequence": "ATAAGGTTACAACAAACACACAAAGGAATATACACA [CACACA_site7840]", "gcPBM binding intensity (ln)": "9.35 ± 0.5"}
{"sequence": "AAAATTTTTTGAAATAGTACTTTTTTATATATATAT [XGTACX_site2634]", "gcPBM binding intensity (ln)": "8.52 ± 0.33"}
{"sequence": "CAACAAAATAAACACACACACACAAACACAAAAAAA [CACACA_site5806]", "gcPBM binding intensity (ln)": "10.2 ± 0.27"}
{"sequence": "TATAAATTTATATATGCATGTCAGAAAAAAAAGTAA [TGCATGCA_site414]", "gcPBM binding intensity (ln)": "8.59 ± 0.49"}
{"sequence": "ATATTTTATACTTGCACACAAAATATATTAGAATGT [CACACA_site1985]", "gcPBM binding intensity (ln)": "9.11 ± 0.4"}
{"sequence": "GAAATCTAATTTATTACACACATTTGAAAAAAATTC [CACACA_site6640]", "gcPBM binding intensity (ln)": "8.64 ± 0.42"}
{"sequence": "ACCCATTTTTGTTGTTCTATATATTCGTGAATCATT [CACACA_negctrl_site614]", "gcPBM binding intensity (ln)": "9.02 ± 0.45"}
{"sequence": "TTATATTTTTTTGAGTGTACTTTTTGTGTAAAATTC [XGTACX_site2155]", "gcPBM binding intensity (ln)": "8.66 ± 0.49"}
{"sequence": "TTACTAAGAAGGATTTATTTTATAAAAATATTTATT [XGTACX_negctrl_site549]", "gcPBM binding intensity (ln)": "8.2 ± 0.54"}
{"sequence": "AATTTTTTGAATAATTGTACATATTTGGTTAAATAT [XGTACX_site3612]", "gcPBM binding intensity (ln)": "8.56 ± 0.48"}
{"sequence": "TATTTTTATTGGTGAATACACACGTATATATATATT [CACACA_site2401]", "gcPBM binding intensity (ln)": "9.02 ± 0.35"}
{"sequence": "TGTTTATGTTTACATGTGCGCATTACAGAAAAAAAA [GTGCAC_site9669]", "gcPBM binding intensity (ln)": "8.65 ± 0.39"}
{"sequence": "TTTTTATTTAAAAGTAGTACAAGGGTTATTATTAAC [XGTACX_site1555]", "gcPBM binding intensity (ln)": "8.46 ± 0.52"}
{"sequence": "ACATGTATACTTTTTACGAAAAAAAAAAAAAAAAAA [CACACA_negctrl_site1638]", "gcPBM binding intensity (ln)": "8.43 ± 0.39"}
{"sequence": "TTTTTTTTTTTTTTTGCACACTTAAATTTGGTGGGG [CACACA_site2344]", "gcPBM binding intensity (ln)": "9.63 ± 0.057"}
